Laboratory results: PubChem BioAssay AID624417 (National Center for Advancing Translational Sciences (NCATS), 2012)
About 6,400 (1.6%) of roughly 410,000 compounds were called active. Inconclusive results, whose numbers are uncertain, are shown with a selection of clear calls. Calls come from the whole dose curve; as a rule, active = well fitted inhibition curve with a large enough effect; inconclusive = small, poorly fitted or top-dose-only effect; inactive = no such curve, though single readings can be large or run the other way. Potencies of inconclusive entries are left out as doubtful fits.

These compounds were tested against Glucagon-like peptide 1 receptor (Homo sapiens) (UniProt P43220) (assay: qHTS of GLP-1 Receptor Inverse Agonists (Inhibition Mode)). Conditions: HEK293 GLP-1R CRE-luciferase, luminescence, 24 h, GLP-1R form is constitutively active; activity change, negative = inhibition: at 38.3 µM (top of the series) unless noted.
How it was run: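 Constitutively active GLP-1R drives a cAMP-responsive luciferase in stably transfected HEK293 cells; test compounds are added after overnight (12 h) attachment and left 24 hr, and signal loss in luminescence marks inhibition.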
% is set by controls: 0 for no effect and ±100 for the full control effect; potency is the fitted concentration of half-maximal effect; tags give direction and shape of the fitted curve.
Note: nearly all actives have a fitted effect of over 55% in size.

UniProt P43220, sequence (P43220 whole entry, looked up): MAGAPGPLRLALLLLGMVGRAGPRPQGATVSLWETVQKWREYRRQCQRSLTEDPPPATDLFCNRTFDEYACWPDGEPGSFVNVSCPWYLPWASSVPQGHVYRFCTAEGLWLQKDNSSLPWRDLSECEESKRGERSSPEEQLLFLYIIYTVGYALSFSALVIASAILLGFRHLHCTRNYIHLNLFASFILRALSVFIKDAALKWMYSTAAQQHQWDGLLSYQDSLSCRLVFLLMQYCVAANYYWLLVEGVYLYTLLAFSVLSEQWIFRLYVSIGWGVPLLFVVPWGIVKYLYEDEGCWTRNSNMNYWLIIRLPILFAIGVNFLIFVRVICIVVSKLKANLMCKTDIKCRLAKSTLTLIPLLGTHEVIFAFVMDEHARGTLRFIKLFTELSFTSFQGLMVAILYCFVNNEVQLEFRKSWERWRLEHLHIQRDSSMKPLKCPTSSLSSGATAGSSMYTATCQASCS

Compound	Potency	activity change, negative = inhibition
CCOc1ccc(C(=O)N/N=C/c2cccc3cccnc23)cc1	inconclusive [inhibitor, single point]	–
CC(C)[C@H](NC(=O)c1ccccc1)C(=O)OCC(=O)N1CCc2ccccc2C1	inconclusive [inhibitor, full curve, poor fit]	–
Cc1ccc(C(=O)N(C)CCOc2ccccc2)cc1S(=O)(=O)N1CCCCC1	inconclusive [inhibitor, partial curve, poor fit]	–
Cc1onc(-c2c(F)cccc2Cl)c1C(=O)N1CCCc2ccccc21	inconclusive [inhibitor, partial curve, poor fit]	–
Cc1ccc(-c2c(C)n3c4c(=O)n(C)c(=O)n(C)c4nc3n2-c2cccc(O)c2)cc1	–	inactive: 18.6%
CCNc1nc(SC(C)C(=O)Nc2ccccc2)nc(N(C)C)n1 (configuration not stated)	inconclusive [inhibitor, single point]	–
COc1ccc(OC2C(=O)N(c3ccc(C)c(C)c3)C2c2ccc(OC)c(OC)c2)cc1 (configuration not stated)	inconclusive [inhibitor, partial curve, poor fit]	–
CNC(=O)c1ccc(NC(=O)CC23CC4CC(CC(C4)C2)C3)cc1	inconclusive [inhibitor, partial curve, poor fit]	–
S=C(c1ccc(-c2cc(Cl)ccc2Cl)o1)N1CCOCC1	inconclusive [inhibitor, single point]	–
COc1cc(C(=O)Nc2ccc(S(=O)(=O)N(C)c3ccccc3)cc2)cc(OC)c1OC	inconclusive [inhibitor, partial curve]	–
COc1ccc(C(O)c2ncc(-c3cccc(C(F)(F)F)c3)[nH]2)cc1 (configuration not stated)	inconclusive [inhibitor, partial curve, poor fit]	–
COc1cc([N+](=O)[O-])cc(/C=N/NC(=O)CSc2nnc(-c3ccccc3)n2C)c1O	–	inactive: 24.6%
O=C(CSc1n[nH]c(-c2ccncc2)n1)Nc1ccccn1	–	inactive: 10.2%
CC1CCCCC1NCc1cccc([N+](=O)[O-])c1 (configuration not stated)	inconclusive [inhibitor, partial curve]	–
COc1cc(-c2ccno2)ccc1S(=O)(=O)N1CCN(c2ccccc2F)CC1	inconclusive [inhibitor, single point]	–
C=CCN1C(=O)C(Cc2ccc(OCC)cc2)S/C1=N\N=C\c1cccs1 (configuration not stated)	active: 10 µM	–
COc1ccccc1NC(=O)C(C)OC(=O)C1CCC(C(C)(C)C)CC1 (configuration not stated)	inconclusive [inhibitor, single point]	–
CCCN(CCC)C(=O)CSc1nc2ccccc2c(=O)n1Cc1ccco1	inconclusive [inhibitor, single point]	–
CCCCCCCOC(=O)c1nc(Cl)c(Cl)c(N)c1Cl	inconclusive [inhibitor, single point]	–
CC1=NOC(=O)/C1=C\c1ccc(-c2ccccc2Br)o1	inconclusive [inhibitor, partial curve, poor fit]	–
COc1ccc(C2(c3ccc(OC(C)=O)cc3OC(C)=O)CC(c3ccccc3)NC(=S)N2)cc1 (configuration not stated)	inconclusive [inhibitor, single point]	–

Compound	Potency	activity change, negative = inhibition
O=C(CN1c2cccc3cccc(c23)S1(=O)=O)NCc1ccc(Cl)cc1	inconclusive [inhibitor, single point]	–
Cc1cc(C)n(CC(O)CN2c3ccccc3Sc3ccccc32)n1 (configuration not stated)	inconclusive [inhibitor, partial curve, poor fit]	–
COc1ccccc1CNCC(=O)Nc1cc(S(=O)(=O)N2CCOCC2)ccc1Cl	inconclusive [inhibitor, single point]	–
COC(=O)c1ccc(NC(=O)CN2C(=O)NC3(CCC(C)CC3)C2=O)cc1 (configuration not stated)	–	inactive: -26.2%
CCc1ccccc1NC(=O)Nc1cccc(F)c1	inconclusive [inhibitor, partial curve, poor fit]	–
C[C@@H]1CN([C@@H](C)CO)S(=O)(=O)c2ccc(Br)cc2O[C@H]1CN(C)Cc1ccc(-c2ccccc2)cc1	inconclusive [inhibitor, single point]	–
c1ccc(CN2CCCC3(CCCN(Cc4nc(COc5ccccc5)no4)C3)C2)cc1 (configuration not stated)	inconclusive [inhibitor, partial curve]	–
O=S(=O)(Nc1cccnc1)c1cccc(C(F)(F)F)c1	–	inactive: 1.35%
O=C(NCCN1CCCC1)c1ccc(Cn2c(=S)[nH]c3ccc(Br)cc3c2=O)cc1	inconclusive [inhibitor, single point]	–
Cc1ccc(S(=O)(=O)Nc2ccc(Nc3nccn4c(-c5cccc(OC(F)(F)F)c5)cnc34)cc2)cc1	inconclusive [inhibitor, single point]	–
COC(=O)C[C@H]1C[C@H]2c3cc(NC(=O)Nc4ccc(C(F)(F)F)cc4)ccc3O[C@H]2[C@@H](CO)O1	inconclusive [inhibitor, single point]	–
Cn1c(SCC(=O)Nc2ccc(Br)cn2)nnc1C1CC1	inconclusive [inhibitor, full curve, poor fit]	–
CC(=O)Nc1cccc(Oc2ncnc3scc(-c4ccc(C)cc4)c23)c1	inconclusive [inhibitor, single point]	–
CCc1nn(CC(=O)NCCCN(C)Cc2ccccc2)c(=O)c2cc3sc(C)cc3n12	inconclusive [inhibitor, full curve, poor fit]	–
COc1cccc(NC(=O)N2CCCC(C(=O)NCc3ccc(F)cc3)C2)c1 (configuration not stated)	inconclusive [inhibitor, full curve, poor fit]	–
COc1cccc(-c2noc(C3CCCN(C(=O)c4cccc(F)c4)C3)n2)c1 (configuration not stated)	inconclusive [inhibitor, single point]	–
O=C(O)/C=C/C(=O)N1N=C(c2ccco2)CC1c1ccco1 (configuration not stated)	–	inactive: -6.09%
Brc1cccc(OCCN2CCOCC2)c1	–	inactive: 11.6%
O=C(NCC(c1ccco1)N1CCCC1)c1ccc(S(=O)(=O)Nc2ccccc2Cl)cc1 (configuration not stated)	inconclusive [inhibitor, single point]	–
CCN1C(=O)/C(=C/c2ccc(C)s2)SC1=Nc1ccc(OC)cc1	inconclusive [inhibitor, single point]	–
O=C(/C=C/c1ccc(Cl)c([N+](=O)[O-])c1)Nc1ccc(N2CCCC2)c(Cl)c1	inconclusive [inhibitor, single point]	–

Compound	Potency	activity change, negative = inhibition
CC12CCC(c3nnc(SCc4ccc(Cl)cc4)nc31)C2(C)C (configuration not stated)	inconclusive [inhibitor, partial curve, poor fit]	–
COc1ccc(NC(=S)N(CCC(C)C)C2CCN(C(C)C)CC2)cc1Cl	inconclusive [inhibitor, single point]	–
CC(C)CCN1C(=O)C2(OCCCO2)c2cc(Cl)ccc21	inconclusive [inhibitor, single point]	–
O=C(Cn1ccc2cc(S(=O)(=O)N3CCCCC3)ccc21)NCCc1ccc(Cl)cc1	inconclusive [inhibitor, single point]	–
COc1ccccc1C(C)NC(=O)CCC(=O)N1CCN(S(=O)(=O)c2ccc(Cl)cc2)CC1 (configuration not stated)	–	inactive: -13.6%
COCCCN1C(=O)C(CC(=O)NCc2cccs2)CC(C(=O)N2CCOCC2)=C1C (configuration not stated)	–	inactive: 5%
COc1ccc([C@H]2/C=C\CN(C(=O)C3CCCC3)[C@@H](C)C(=O)N2Cc2ccc(F)cc2)cc1	inconclusive [inhibitor, single point]	–
CCOC(=O)c1c(NC(=O)Cc2coc3cc(C)ccc23)sc2c1CCCC2	–	inactive: -23.2%
Cc1ccc(NC(=O)Cn2nc([N+](=O)[O-])c(Br)c2C)cc1C	inconclusive [inhibitor, single point]	–
COc1ccc(NC(=S)NC(=O)C2CCC2)cc1	inconclusive [inhibitor, single point]	–
Cc1nn(CC(=O)NCCCN2CCN(C)CC2)c(=O)c2cc(-c3ccccc3)nn12	inconclusive [inhibitor, single point]	–
COc1cccc(NC(=O)CSc2nc3ncc(Br)cc3[nH]2)c1	inconclusive [inhibitor, partial curve, poor fit]	–
COc1ccc(CCC(=O)NCCOc2ccccc2Cl)cc1	inconclusive [inhibitor, single point]	–
Cc1c(-c2ccccc2)c(-c2ccc(OCCN(C)C)cc2)n2ccccc12	inconclusive [inhibitor, partial curve]	–
C[C@@H]1CN([C@H](C)CO)C(=O)c2cc(NC(=O)Nc3ccc(C(F)(F)F)cc3)ccc2O[C@H]1CN(C)Cc1ccc(Cl)c(Cl)c1	inconclusive [inhibitor, partial curve, poor fit]	–
C[C@H](NC(=O)COc1ccc(Cl)cc1)C(=O)N1CCC2(CC1)NCCc1[nH]cnc12	–	inactive: -8.27%
COC(=O)C1C=CC(OC2OC(COC(C)=O)C(OC(C)=O)C(OC(C)=O)C2OC(C)=O)n2c(=O)n(-c3ccccc3)c(=O)n21 (configuration not stated)	inconclusive [inhibitor, single point]	–
COc1cccc(OC(C)c2ccnc3nc(/N=C/N(C)C)nn23)c1 (configuration not stated)	–	inactive: 1.35%
Cc1cc(C)c(NC(=O)CCCN2C(=O)COc3ccc(C)cc32)c(C)c1	–	inactive: -6.23%
CCOC(=O)C1=C(CNCCc2ccc(Cl)cc2)NC(=O)NC1c1cccc([N+](=O)[O-])c1 (configuration not stated)	active: 10 µM	–
